Assay results: the supplement of paper PMC9446081
Among all 39,000 compounds or so, about 220 (0.56%) showed activity. The list shows a part of the results.

tested on: Escherichia coli K-12 BW25113; experiment: relative growth (OD600 normalised to plate interquartile mean) (fraction); higher = less growth inhibition, active = 0.2 or less; details: 50 µM; LB; incubation time: overnight (16-24 h)
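Note: static incubation at 37 °C against the wild-type strain, values averaged over two biological replicates.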

| Structure (SMILES) | relative growth |
| --- | --- |
| C[C@H]1CN([C@@H](C)CO)C(=O)c2cc(C#CC(C)(C)O)cnc2O[C@H]1CN(C)C(=O)CN(C)C | inactive: 1.03 |
| Cc1ccc(S(=O)(=O)Nc2ccc3c(c2)C(=O)N(C)[C@@H]2CC[C@@H](CC(=O)NCCc4ccncc4)O[C@H]2CO3)cc1 | inactive: 0.992 |
| Cc1ccc(C)c(S(N)(=O)=O)c1 | inactive: 0.952 |
| C[C@H](NC(=O)[C@@H]1CCCC[C@H]1C(=O)O)c1ccccc1.C[C@H](NC(=O)[C@H]1CCCC[C@H]1C(=O)O)c1ccccc1 | inactive: 0.982 |
| C[C@H](CO)N1C[C@H](C)[C@@H](CN(C)S(=O)(=O)c2cccs2)Oc2ccc(NS(=O)(=O)c3ccc(F)cc3)cc2CC1=O | inactive: 0.997 |
| O=C(O)c1ccc[n+]([O-])c1 | inactive: 0.916 |
| C[C@H]1CN([C@@H](C)CO)S(=O)(=O)c2ccc(C#CC(C)(C)O)cc2O[C@@H]1CN(C)C(=O)C1CCCCC1 | inactive: 0.989 |
| C[C@@H]1CN([C@@H](C)CO)C(=O)c2cc(NC(=O)Cn3cnnn3)ccc2O[C@H]1CN(C)S(=O)(=O)c1ccc(F)cc1 | inactive: 0.975 |
| COc1ccc(C(=O)Nc2ccc(CN3C(=O)[C@]4(O[C@H](CC(=O)N5CCC[C@H]5CO)[C@@H]([Si](C)(C)c5ccc(OC)cc5)[C@@H]4C)c4ccccc43)cc2)cc1 | inactive: 1.02 |
| COc1ccc(CN(C)C[C@H]2Oc3c(NC(=O)c4cc(C)nn4C)cccc3C(=O)N([C@H](C)CO)C[C@@H]2C)cc1 | inactive: 0.99 |
| C[C@H](CO)N1C[C@H](C)[C@@H](CN(C)Cc2ccc(Cl)c(Cl)c2)OCCCC[C@H](C)Oc2ccc(NS(=O)(=O)c3cccs3)cc2C1=O | inactive: 0.983 |
| C[C@H](CO)N1C[C@H](C)[C@H](CN(C)Cc2ccc(Cl)c(Cl)c2)Oc2ccc(NC(=O)C3CCCCC3)cc2C1=O | inactive: 0.853 |
| C[C@H]1CN([C@@H](C)CO)C(=O)CCCn2nncc2CO[C@H]1CN(C)S(=O)(=O)c1ccc(Cl)cc1 | inactive: 0.996 |
| C[C@@H]1CN([C@@H](C)CO)C(=O)Cc2cc(NC(=O)CCC(F)(F)F)ccc2O[C@@H]1CN(C)Cc1ccc(C(=O)Nc2ccccc2N)cc1 | inactive: 1.02 |
| C[C@H](CO)N1C[C@H](C)[C@@H](CN(C)C(=O)Nc2ccc(C(F)(F)F)cc2)Oc2ccc(NC(=O)CCC(F)(F)F)cc2C1=O | inactive: 0.955 |
| C[C@@H]1CN([C@H](C)CO)C(=O)Cc2cc(NC(=O)Nc3ccc(C(F)(F)F)cc3)ccc2O[C@@H]1CN(C)Cc1ccc(Oc2ccccc2)cc1 | inactive: 1.03 |
| Cc1ccccc1S(=O)(=O)N1C[C@H](O)COC[C@H]2O[C@H](CC(=O)N3CCOCC3)CC[C@@H]21 | inactive: 1.02 |
| C[C@@H](N)CCCC(C)(C)O | inactive: 0.979 |
| Cc1noc(C)c1S(=O)(=O)Nc1ccc2c(c1)C(=O)N([C@@H](C)CO)C[C@@H](C)[C@@H](CN(C)C)OCCCC[C@@H](C)O2 | inactive: 0.999 |
| CC(C)NC(=O)Nc1ccc2c(c1)CC(=O)N([C@H](C)CO)C[C@@H](C)[C@H](CN(C)Cc1ccc3c(c1)OCO3)O2 | inactive: 1.01 |

| Structure (SMILES) | relative growth |
| --- | --- |
| C[C@H](CO)N1C[C@H](C)[C@H](CN(C)S(=O)(=O)c2cccs2)Oc2ccc(NC(=O)CCCN(C)C)cc2C1=O | inactive: 0.996 |
| C[C@H]1CCCCO[C@H](CN(C)S(=O)(=O)c2ccccc2)[C@@H](C)CN([C@@H](C)CO)C(=O)c2cc(NC(=O)c3ccccc3)ccc2O1 | inactive: 1.02 |
| COc1ccc(S(=O)(=O)N[C@@H]2C=C[C@H](CC(=O)NCCc3ccncc3)O[C@H]2CO)cc1 | inactive: 1 |
| O=C(C[C@H]1C[C@@H]2c3cc(NS(=O)(=O)c4ccc(F)cc4)ccc3O[C@@H]2[C@H](CO)O1)NCc1ccccc1F | inactive: 1.03 |
| COCC(=O)Nc1ccc2c(c1)OC[C@@H](C)N(Cc1cccc(F)c1)C[C@@H](C)[C@@H](OC)CN(C)C2=O | inactive: 0.995 |
| Cc1noc(C)c1NC(=O)N(C)C[C@@H]1OCCCC[C@@H](C)Oc2ccc(NC(=O)C3CCCCC3)cc2C(=O)N([C@@H](C)CO)C[C@@H]1C | inactive: 0.946 |
| Cc1ccc(CNc2ccc3c(c2)ncn3C2CCCCC2)cc1 | inactive: 0.961 |
| Cc1ccc(S(=O)(=O)Nc2ccc3c(c2)C(=O)N([C@@H](C)CO)C[C@@H](C)[C@@H](CN(C)C(=O)C2CCCCC2)OCCCC[C@H](C)O3)cc1 | inactive: 1 |
| Cc1ccnc(-n2c(C)ccc2C)c1 | inactive: 1 |
| CN1C(=O)c2cc(NC(=O)C3CCC3)ccc2OC[C@H]2O[C@@H](CC(=O)NCCc3ccncc3)CC[C@H]21 | inactive: 0.993 |
| C[C@H](CO)N1C[C@H](C)[C@H](CN(C)S(=O)(=O)c2ccc(Cl)cc2)OCCCC[C@H](C)Oc2ccc(NC(=O)C3CCCCC3)cc2C1=O | inactive: 0.975 |
| CO[C@H]1/C=C\O[C@@]2(C)Oc3c(C)c(O)c4c(O)c(c(/C=N/N=C/N5CCCCC5)c(O)c4c3C2=O)NC(=O)/C(C)=C\C=C/[C@H](C)[C@H](O)[C@@H](C)[C@@H](O)[C@@H](C)[C@H](OC(C)=O)[C@@H]1C | inactive: 0.65 |
| CO[C@H]1CN(C)C(=O)c2cc(NC(=O)Nc3ccccc3F)ccc2OC[C@@H](C)N(CCC(F)(F)F)C[C@H]1C | inactive: 0.975 |
| C[C@@H]1CCCCO[C@H](CN(C)CC2CCCCC2)[C@@H](C)CN([C@H](C)CO)C(=O)c2cc(NS(=O)(=O)c3ccc(F)cc3)ccc2O1 | inactive: 0.991 |
| C[C@@H]1CCCCO[C@@H](CN(C)C(=O)Nc2ccccc2)[C@@H](C)CN([C@H](C)CO)C(=O)c2cc(NC(=O)C3CCCCC3)ccc2O1 | inactive: 0.981 |
| Cc1ccc(S(=O)(=O)Nc2ccc3c(c2)C(=O)N([C@@H](C)CO)C[C@@H](C)[C@H](CN(C)C(=O)Nc2ccc(C(F)(F)F)cc2)OCCCC[C@@H](C)O3)cc1 | inactive: 1.01 |
| O=C(c1cccnc1)N1C[C@@H]2[C@H](c3ccccc31)[C@H](CO)N2C(=O)CN1CCOCC1 | inactive: 0.999 |
| COc1ccc(S(=O)(=O)Nc2ccc3c(c2)C(=O)N([C@H](C)CO)C[C@@H](C)[C@@H](CN(C)S(=O)(=O)c2cccs2)O3)cc1 | inactive: 0.999 |
| C[C@H](CO)N1C[C@H](C)[C@H](CN(C)S(C)(=O)=O)Oc2ccc(NC(=O)CCC(F)(F)F)cc2CC1=O | inactive: 1.04 |
| O=C(CN1CCC2(CC1)OCCC[C@@H]2O)N1CCOCC1 | inactive: 1.01 |

| Structure (SMILES) | relative growth |
| --- | --- |
| C[C@@H]1CCCCO[C@H](CN(C)Cc2ccc(C(F)(F)F)cc2)[C@H](C)CN([C@H](C)CO)C(=O)c2cc(NC(=O)C3CCCCC3)ccc2O1 | inactive: 0.951 |
| COc1ccc(NC(=O)N(C)C[C@@H]2Oc3ccc(NC(=O)C4CC4)cc3C(=O)N([C@@H](C)CO)C[C@H]2C)cc1 | inactive: 1.01 |
| COc1ccc(S(=O)(=O)N(C)C[C@H]2Oc3ccc(NC(=O)CCCN(C)C)cc3C(=O)N([C@@H](C)CO)C[C@@H]2C)cc1 | inactive: 0.998 |
| O=S(=O)(NCC[C@@H]1CC[C@H](NS(=O)(=O)c2cccc(Cl)c2)[C@@H](CO)O1)c1cccc(F)c1 | inactive: 0.989 |
| Cc1noc(C)c1NC(=O)Nc1ccc2c(c1)C(=O)N([C@@H](C)CO)C[C@H](C)[C@@H](CN(C)C(=O)Cc1ccccc1)OCCCC[C@H](C)O2 | inactive: 1.02 |
| N=C1NC(=O)CS1 | inactive: 0.999 |
| O=C(C[C@H]1C=C[C@H](NC(=O)c2cccnc2)[C@@H](CO)O1)NCCN1CCCCC1 | inactive: 1.02 |
| C[C@@H]1CN([C@@H](C)CO)C(=O)Cc2cc(NS(C)(=O)=O)ccc2O[C@H]1CN(C)S(=O)(=O)c1cccs1 | inactive: 0.97 |
| CC(=O)Nc1c(I)c(C(=O)N[C@@H]2[C@@H](O)[C@H](O)[C@@H](CO)O[C@@H]2O)c(I)c(N(C)C(C)=O)c1I | inactive: 0.969 |
| Cc1noc(C)c1NC(=O)Nc1ccc2c(c1)C(=O)N([C@@H](C)CO)C[C@@H](C)[C@@H](CN(C)Cc1ccc(C(=O)O)cc1)OCCCC[C@@H](C)O2 | inactive: 1.01 |
| CC(C)NC(=O)N(C)C[C@H]1Oc2ccc(NC(=O)c3ccncc3)cc2CC(=O)N([C@H](C)CO)C[C@@H]1C | inactive: 0.955 |
| C[C@@H]1CN([C@H](C)CO)C(=O)c2cc(C#CC3(O)CCCC3)cnc2O[C@H]1CN(C)C(=O)C1CCCCC1 | inactive: 1.02 |
| CC(C)C[C@@H]1NC(=O)[C@@H]2C[C@H](C(=O)NCCCCCCN(C)C)[C@H](c3cccc(OCCO)c3)N2C1=O | inactive: 1.01 |
| C[C@H]1CN([C@@H](C)CO)C(=O)c2cc(NC(=O)Cn3cnnn3)ccc2O[C@H]1CN(C)Cc1ccc(C(F)(F)F)cc1 | inactive: 0.942 |
| C[C@@H]1CCCCO[C@H](CN(C)C(=O)Nc2ccccc2)[C@@H](C)CN([C@@H](C)CO)C(=O)c2cc(NS(=O)(=O)c3ccccc3)ccc2O1 | inactive: 1.01 |
| COc1ccc(NC(=O)Nc2ccc3c(c2)C(=O)N([C@H](C)CO)C[C@H](C)[C@H](CN(C)C(=O)CCC(F)(F)F)OCCCC[C@@H](C)O3)cc1 | inactive: 0.987 |
| Cc1noc(C)c1S(=O)(=O)Nc1ccc2c(c1)CC(=O)N([C@@H](C)CO)C[C@H](C)[C@@H](CN(C)S(=O)(=O)c1c(C)noc1C)O2 | inactive: 0.986 |
| COc1ccc(-c2oc3cc(OC)c(OC)c(OC)c3c(=O)c2OC)cc1OC | inactive: 1.18 |
| Cc1noc(C)c1S(=O)(=O)N(C)C[C@@H]1Oc2ccc(NS(C)(=O)=O)cc2CC(=O)N([C@H](C)CO)C[C@H]1C | inactive: 0.994 |
